{"source": "patent US20180220653A1", "about": "“Methods for Identifying Compounds that Directly Bind to Insect Transient Receptor Potential Channels” (priority 2015, published 2018)", "origin": "cited, not measured here", "key": {"[1]": {"target": "T1, insect TRPV channels, Nan and Iav (Drosophila melanogaster, UniProt M9PI57+Q9W3W0)", "T1 sequence (M9PI57 1-834)": "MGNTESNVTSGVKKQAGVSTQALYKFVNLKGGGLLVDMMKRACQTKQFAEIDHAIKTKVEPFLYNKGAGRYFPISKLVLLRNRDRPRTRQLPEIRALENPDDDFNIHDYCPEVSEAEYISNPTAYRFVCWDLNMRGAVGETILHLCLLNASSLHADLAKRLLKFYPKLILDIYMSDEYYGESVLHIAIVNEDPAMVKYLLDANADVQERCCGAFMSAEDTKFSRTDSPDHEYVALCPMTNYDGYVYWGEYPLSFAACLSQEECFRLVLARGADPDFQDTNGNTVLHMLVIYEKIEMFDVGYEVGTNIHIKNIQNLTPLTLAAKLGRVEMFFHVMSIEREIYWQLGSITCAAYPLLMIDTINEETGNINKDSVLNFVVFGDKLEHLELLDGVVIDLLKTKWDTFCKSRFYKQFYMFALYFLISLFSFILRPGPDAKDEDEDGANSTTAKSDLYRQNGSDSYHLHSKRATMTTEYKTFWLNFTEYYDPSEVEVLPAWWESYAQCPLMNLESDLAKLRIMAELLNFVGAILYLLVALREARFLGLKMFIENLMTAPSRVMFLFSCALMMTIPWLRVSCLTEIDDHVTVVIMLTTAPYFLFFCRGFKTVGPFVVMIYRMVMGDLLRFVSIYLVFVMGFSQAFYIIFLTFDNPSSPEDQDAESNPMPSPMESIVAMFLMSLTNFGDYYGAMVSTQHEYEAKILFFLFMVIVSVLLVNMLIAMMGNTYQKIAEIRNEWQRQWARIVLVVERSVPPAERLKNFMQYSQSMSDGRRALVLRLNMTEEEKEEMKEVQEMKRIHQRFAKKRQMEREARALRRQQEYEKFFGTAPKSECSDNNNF", "T1 sequence (Q9W3W0 1-1123)": "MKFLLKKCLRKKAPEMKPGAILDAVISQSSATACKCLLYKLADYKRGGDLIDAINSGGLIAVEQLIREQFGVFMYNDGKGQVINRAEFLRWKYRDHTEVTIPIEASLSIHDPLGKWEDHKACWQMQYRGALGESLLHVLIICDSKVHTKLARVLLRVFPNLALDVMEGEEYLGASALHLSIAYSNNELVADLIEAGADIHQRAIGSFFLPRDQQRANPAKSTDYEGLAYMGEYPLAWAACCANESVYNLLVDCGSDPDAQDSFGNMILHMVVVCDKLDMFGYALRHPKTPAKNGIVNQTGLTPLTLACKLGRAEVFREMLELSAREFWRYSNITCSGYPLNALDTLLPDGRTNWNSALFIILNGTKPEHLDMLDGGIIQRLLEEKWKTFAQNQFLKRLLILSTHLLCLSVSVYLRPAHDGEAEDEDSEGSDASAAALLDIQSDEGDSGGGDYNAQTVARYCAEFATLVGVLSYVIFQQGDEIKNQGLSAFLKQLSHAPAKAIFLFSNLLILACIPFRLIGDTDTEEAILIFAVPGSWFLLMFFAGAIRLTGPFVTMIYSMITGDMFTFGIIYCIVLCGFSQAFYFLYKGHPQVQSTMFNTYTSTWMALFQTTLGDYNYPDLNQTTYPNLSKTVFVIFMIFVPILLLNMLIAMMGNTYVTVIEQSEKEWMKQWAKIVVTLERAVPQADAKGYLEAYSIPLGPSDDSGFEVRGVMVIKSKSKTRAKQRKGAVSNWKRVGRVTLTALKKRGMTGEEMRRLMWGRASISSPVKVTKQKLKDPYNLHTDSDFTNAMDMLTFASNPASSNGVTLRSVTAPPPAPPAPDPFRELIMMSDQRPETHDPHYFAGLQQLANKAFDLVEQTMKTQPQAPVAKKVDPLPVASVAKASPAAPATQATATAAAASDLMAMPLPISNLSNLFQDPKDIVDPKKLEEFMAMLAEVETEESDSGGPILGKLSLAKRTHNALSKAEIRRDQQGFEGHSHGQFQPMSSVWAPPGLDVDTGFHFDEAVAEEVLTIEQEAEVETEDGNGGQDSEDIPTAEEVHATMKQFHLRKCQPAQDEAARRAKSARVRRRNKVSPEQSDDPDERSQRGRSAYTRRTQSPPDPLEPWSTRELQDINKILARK", "settings": "CHO cells co-infected with Nan and Iav; Nesterov et al., 2013; 2015; cited from earlier work"}, "[2]": {"target": "T1, insect TRPV channels, Nan and Iav", "settings": "CHO cells co-infected with Nan and Iav; Nesterov et al., 2013; 2015; cited from earlier work", "remark": "listed apart in the source"}}, "data": [{"smiles": "O=C1Nc2ccc(C(F)(C(F)(F)F)C(F)(F)F)cc2CN1NCc1cccnc1", "note": "[N-deacetylated pyrifluquinazon]", "values": [{"measurement": "calcium mobilization", "setting": "[1]", "value": "elicited calcium mobilization"}, {"measurement": "membrane depolarization", "setting": "[2]", "value": "membrane depolarization"}]}, {"smiles": "CC1=NNC(=O)N(/N=C/c2cccnc2)C1", "note": "[pymetrozine]", "values": [{"measurement": "calcium mobilization", "setting": "[1]", "value": "elicited calcium mobilization"}, {"measurement": "membrane depolarization", "setting": "[2]", "value": "membrane depolarization"}]}, {"smiles": "CC(=O)N1C(=O)N(NCc2cccnc2)Cc2cc(C(F)(C(F)(F)F)C(F)(F)F)ccc21", "note": "[pyrifluquinazon]", "values": [{"measurement": "calcium mobilization", "setting": "[1]", "value": "elicited calcium mobilization"}, {"measurement": "membrane depolarization", "setting": "[2]", "value": "membrane depolarization"}]}]}
